This note sets out measurements from PubChem BioAssay AID1745853 (National Center for Advancing Translational Sciences (NCATS), 2022).

Some of the results follow. Shown are side measurements of this screen, not its main read-out; they come without a call.

Test in all cases: Primary Screen for Target Class Profiling of Small Molecule Inhibitors of Methyltransferases
The target in experiment [1] is Glycine N-methyltransferase (Homo sapiens) (UniProt Q14749). The following applies: purified enzyme, MTase-Glo SAH luminescence; measured here: GNMT inhibition; at 40 µM; stronger effect = lower value. From the text: (§1) PI: Matthew D. Hall Ph.D. and Quinlin M. Hanson Ph.D.
(§2) National Center for Advancing Translational Sciences (NCATS)
(§3) National Institute of Health (NIH), Rockville, MD
(§4) Target class profiling (TCP) is a chemical biology approach amenable to investigating understudied biological targets. TCP is achieved by developing a generalizable assay platform and applying it to screen a curated set of compound libraries against representative members of a target class. Small molecule methyltransferases (SMMTase) are a subclass of methyltransferase that act on metabolites to modulate signaling pathways, metabolize xenobiotics, or balance the available methyl pool. We screened four curated libraries totaling 27,574 unique compounds against the SMMTases nicotinamide N-methyltransferase (NNMT), phenylethanolamine N-methyltransferase (PNMT), histamine N-methyltransferase (HNMT), glycine N-methyltransferase (GNMT), catechol O-methyltransferase (COMT), and guanidinoacetate N-methyltransferase (GAMT). The data generated by this TCP can be leveraged for informed tool molecule development. For example, in the associated publication we identified a chemotype of HNMT-selective inhibitors. Additionally, we identified a putative SMMTase-selective inhibitor with potential as a tool molecule for studying broader methyltransferase biology.
(§5) High-through put screening assays were developed at the National Center for Advancing Translational Science (NCATS) for the enzymes NNMT, PNMT, HNMT, GNMT, COMT, and GAMT. Enzymatic activity was measured as a function of SAM cofactor conversion using the MTase Glo kit (Promega) for all enzymes. All assays were performed in 1536-well format with substrates and SAM concentrations at KM values. Enzyme concentration and assay timing were optimized for 10-20% SAM conversion. Initial screening of 27,574 compounds was done as single-point assays using the highest compound concentration (40 uM). […] These compounds were replated in 11-point dose response and assayed against NNMT, PNMT, HNMT, GNMT, COMT, GAMT, and a counter-assay. The IC50 and efficacy (maximal response) values were determined for each dose-response curve. These values are also accounted for in the area under the curve (AUC) values.
(§6) PROTOCOL TABLE (as described by Inglese J, Shamu CE and Guy RK. 2007)
(§7) SEQUENCE No. (e.g., 1, 2, 3, etc.); […] (e.g., Cells, Incubation, Reagent, etc.); VALUE; DESCRIPTION.
(§8) 1; Reagent; 2 uL; SMMTase Enzyme (2x) in reaction buffer, columns 1- 48.
(§9) 2; Reagent; 1 uL; SAM (4x) in reaction buffer, columns 1-48.
(§10) 3; Controls; 23 nL; DMSO in column 4; sinefungin in DMSO (0 uM - 40 uM) in 7-point 1:2 dilution series (n = 2) in column 2.
(§11) 4; Compounds; 23 nL; Columns 5-48.
(§12) 5; Reagent; 1 uL; Substrate (4x) in reaction buffer, columns 2-48.
(§13) 6; Time; 20-30 min; Incubation.
(§14) 7; Reagent; 1 uL; MTase-Glo reagent (5X), columns 1-48.
(§15) 8; Time; 30 min; Incubation.
(§16) 9; Reagent; 5 uL; MTase-Glo Detection reagent, columns 1-48.
(§17) 10; Time; 30 min; Incubation, luminescence evolution.
(§18) 11; Detection; Luminescence; ViewLux uHTS Microplate Imager (PerkinElmer).
(§19) NOTES (numbers refer to Sequence numbers above)
(§20) 1, 2, 5. White Medium Binding Greiner 1536-well plates (Cat #789175-F, Greiner Bio-One, Monroe, NC); Reaction buffer: 50 mM Tris, pH 8.0, 3 mM MgCl2, 1 mM EDTA, 50 mM NaCl, 1 mM DTT, and 0.1 mg/mL BSA. Evaporation was prevented by covering assay plates with metal lids containing holes to allow gas diffusion.
(§21) 1. Six SMMTase were profiled: HNMT, GNMT, PNMT, COMT, NNMT, GAMT
(§22) 5. The corresponding substrate was used for each enzyme: HNMT - 5.3 uM Histamine; GNMT - >500 uM Glycine; PNMT - 16.2 uM Norephinephrine; COMT - 13.7 uM Norephinephrine; NNMT - 3.8 uM Nicotinamide; GAMT - 2.5 uM Guanidinoacetate.6, 8, 10. Room temperature
(§23) 6. Final reaction conditions: 10 nM COMT, 5 uM SAM, 15 uM norepinephrine, 50 mM Tris, pH 8.0, 3 mM MgCl2, 1 mM EDTA, 50 mM NaCl, 1 mM DTT, and 0.1 mg/mL BSA; refer to tables 2 and S1 for specific timing.
8. […]

In experiment [2] the target is Guanidinoacetate N-methyltransferase (Homo sapiens) (UniProt Q14353). The note with it: purified enzyme, MTase-Glo SAH luminescence; measured here: GAMT inhibition; at 40 µM; stronger effect = lower value.
Excerpt: as §1, §2, §3, §4, §5, §6, §7, §8, §9, §10, §11, §12, §13, §14, §15, §16, §17, §18, §19, §20, §21, §22, §23
8. […]

The target of experiment [3] is Histamine N-methyltransferase (Homo sapiens) (UniProt P50135). The note with it: purified enzyme, MTase-Glo SAH luminescence; measured here: HNMT inhibition; at 40 µM; stronger effect = lower value.
Excerpt: as §1, §2, §3, §4, §5, §6, §7, §8, §9, §10, §11, §12, §13, §14, §15, §16, §17, §18, §19, §20, §21, §22, §23
8. […]

The target of experiment [4] is Nicotinamide N-methyltransferase (Homo sapiens) (UniProt P40261). The note with it: purified enzyme, MTase-Glo SAH luminescence; measured here: NNMT inhibition; at 40 µM; stronger effect = lower value.
Excerpt: as §1, §2, §3, §4, §5, §6, §7, §8, §9, §10, §11, §12, §13, §14, §15, §16, §17, §18, §19, §20, §21, §22, §23
8. […]

In experiment [5] the target is Phenylethanolamine N-methyltransferase (Homo sapiens) (UniProt P11086). The note with it: purified enzyme, MTase-Glo SAH luminescence; measured here: PNMT inhibition; at 40 µM; stronger effect = lower value.
Excerpt: as §1, §2, §3, §4, §5, §6, §7, §8, §9, §10, §11, §12, §13, §14, §15, §16, §17, §18, §19, §20, §21, §22, §23
8. […]
On the % scale 0 is the no-effect control and ±100 the full control effect.

With `Cc1ccc(CCNC(=O)c2ccc3c(=O)[nH]c4c(C(=O)NC5CCCC5)sc(=S)n4c3c2)cc1`, the activity change, negative = inhibition in experiment [1] was -9.78%; in experiment [2] it was 2.66%; in experiment [3] it was -6.89%; in experiment [4], -19.1%; in experiment [5] it was -23.1%.

Take `O=C(CSc1nnc2n(Cc3ccc(F)cc3)c(=O)c3ccccc3n12)Nc1ccc(F)cc1F`: the activity change, negative = inhibition in experiment [1] turned out to be 5.62%; in experiment [2] it was 1.21%; in experiment [3], 12.7%; in experiment [4], 4.64%; in experiment [5] it was 9.68%.

On to `C[C@H](NC(c1cccc(C[P+](=O)O)c1)[C@H](C)O)c1ccc(Cl)c(Cl)c1` (stereo not given in full), for which the activity change, negative = inhibition in experiment [1] is 3.91%; in experiment [2], 7.03%; in experiment [3], 8.97%; in experiment [4] it was -7.61%; in experiment [5], 5.87%.

Take `COC(=O)c1ncn2c1C(=O)N(Cc1cccc(Cl)c1)C(C)(C(=O)NC1CCCC1)C2` (stereo not given): the activity change, negative = inhibition is -1.06% in experiment [1]; 4.23% in experiment [2]; 2.54% in experiment [3]; 11.1% in experiment [4]; -2.17% in experiment [5].

Turning to `CCC(C)N1C(=O)c2cc3sccc3n2CC1(C)C(=O)NC1CCCCCC1` (stereo not given), the activity change, negative = inhibition is 3.49% in experiment [1]; -6.15% in experiment [2]; 9.74% in experiment [3]; 6.65% in experiment [4]; 3.75% in experiment [5].

With `COCCn1c2c(c(=O)n1-c1ccccc1)CCN(C(=O)c1cccc(C#N)c1)C2`, the activity change, negative = inhibition was -6.74% in experiment [1]; -16.4% in experiment [2]; -3.69% in experiment [3]; -14.8% in experiment [4]; -4.14% in experiment [5].

Turning to `Cc1cccc(Cn2nc3n(C(C)C)c(=O)c4ccc(C(=O)NC5CCCC5)cc4n3c2=O)c1`, the activity change, negative = inhibition was -0.08% in experiment [1]; 0.028% in experiment [2]; 4.09% in experiment [3]; -1.49% in experiment [4]; -3.14% in experiment [5].

With `Cc1ccc(C(=O)Cn2nc3n(CCc4ccccc4)c(=O)c4ccccc4n3c2=O)cc1`, the activity change, negative = inhibition amounted to 2.94% in experiment [1]; 0% in experiment [2]; 5.06% in experiment [3]; 0.587% in experiment [4]; 0.308% in experiment [5].

With `COc1ccc(N2CCN(C(=O)c3ccc4c(=O)nc5c(-c6ccc(F)cc6)n[nH]n5c4c3)CC2)cc1`, the activity change, negative = inhibition in experiment [1] was -8.61%; in experiment [2], 2.74%; in experiment [3] it was -2.4%; in experiment [4], -5.88%; in experiment [5] it was -6.69%.

Regarding `CCOC(=O)N1CCC(=C2c3ccc(Cl)cc3CCc3cccnc32)CC1`, the activity change, negative = inhibition is -7.56% in experiment [1]; 13.5% in experiment [2]; 0.325% in experiment [3]; -9.41% in experiment [4]; 9.51% in experiment [5].

For the molecule `C/C=C(/C)C(=O)O[C@H]1C[C@]2(C)O[C@@H]2[C@@H](OC(C)=O)[C@@]2(C)CC[C@@](O)(C(C)C)[C@H]12`, the activity change, negative = inhibition is 2.51% in experiment [1]; 1.6% in experiment [2]; 3.69% in experiment [3]; -9.58% in experiment [4]; 1.63% in experiment [5].

With `COCCCN1CC2(CCN(C(=O)CCn3cc(C)cn3)CC2)CC1=O`, the activity change, negative = inhibition in experiment [1] is -3.93%; in experiment [2] it was -7.83%; in experiment [3], -2.06%; in experiment [4], -6.53%; in experiment [5], -6.03%.

Take `O=C(NC1CCCCC1)N[C@H]1CO[C@H]2[C@@H]1OC[C@H]2O`: the activity change, negative = inhibition is 0.701% in experiment [1]; -4.47% in experiment [2]; 1.14% in experiment [3]; -3.11% in experiment [4]; -7.87% in experiment [5].
